Test [1] deals with T1, HA-tagged ECM1a (extracellular matrix protein-1, secretory isoform a), wild type (human) (UniProt Q16610).
T1 sequence: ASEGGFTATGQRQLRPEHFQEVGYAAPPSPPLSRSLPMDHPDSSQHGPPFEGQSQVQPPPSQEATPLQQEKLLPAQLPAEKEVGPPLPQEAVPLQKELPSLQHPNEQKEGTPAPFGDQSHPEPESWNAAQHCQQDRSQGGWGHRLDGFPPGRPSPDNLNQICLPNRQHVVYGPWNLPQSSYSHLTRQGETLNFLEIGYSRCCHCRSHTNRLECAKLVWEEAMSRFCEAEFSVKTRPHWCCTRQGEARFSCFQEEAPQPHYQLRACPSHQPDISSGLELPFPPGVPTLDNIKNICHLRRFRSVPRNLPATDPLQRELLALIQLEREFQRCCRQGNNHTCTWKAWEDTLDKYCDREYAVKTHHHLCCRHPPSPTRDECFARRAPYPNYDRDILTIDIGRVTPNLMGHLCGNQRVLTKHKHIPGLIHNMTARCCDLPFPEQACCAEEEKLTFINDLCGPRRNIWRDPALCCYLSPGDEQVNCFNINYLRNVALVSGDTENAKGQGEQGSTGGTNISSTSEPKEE
Briefly: proximity ligation; Duolink In Situ Red kit on cells cultured on cover slides at 75% confluence; controls with mouse IgG or the control kit.

Protein sequences, listed by entry. Tags and fused reporters are not part of them. Residues count along the entry.
UniProt P20702, residues 20-1163: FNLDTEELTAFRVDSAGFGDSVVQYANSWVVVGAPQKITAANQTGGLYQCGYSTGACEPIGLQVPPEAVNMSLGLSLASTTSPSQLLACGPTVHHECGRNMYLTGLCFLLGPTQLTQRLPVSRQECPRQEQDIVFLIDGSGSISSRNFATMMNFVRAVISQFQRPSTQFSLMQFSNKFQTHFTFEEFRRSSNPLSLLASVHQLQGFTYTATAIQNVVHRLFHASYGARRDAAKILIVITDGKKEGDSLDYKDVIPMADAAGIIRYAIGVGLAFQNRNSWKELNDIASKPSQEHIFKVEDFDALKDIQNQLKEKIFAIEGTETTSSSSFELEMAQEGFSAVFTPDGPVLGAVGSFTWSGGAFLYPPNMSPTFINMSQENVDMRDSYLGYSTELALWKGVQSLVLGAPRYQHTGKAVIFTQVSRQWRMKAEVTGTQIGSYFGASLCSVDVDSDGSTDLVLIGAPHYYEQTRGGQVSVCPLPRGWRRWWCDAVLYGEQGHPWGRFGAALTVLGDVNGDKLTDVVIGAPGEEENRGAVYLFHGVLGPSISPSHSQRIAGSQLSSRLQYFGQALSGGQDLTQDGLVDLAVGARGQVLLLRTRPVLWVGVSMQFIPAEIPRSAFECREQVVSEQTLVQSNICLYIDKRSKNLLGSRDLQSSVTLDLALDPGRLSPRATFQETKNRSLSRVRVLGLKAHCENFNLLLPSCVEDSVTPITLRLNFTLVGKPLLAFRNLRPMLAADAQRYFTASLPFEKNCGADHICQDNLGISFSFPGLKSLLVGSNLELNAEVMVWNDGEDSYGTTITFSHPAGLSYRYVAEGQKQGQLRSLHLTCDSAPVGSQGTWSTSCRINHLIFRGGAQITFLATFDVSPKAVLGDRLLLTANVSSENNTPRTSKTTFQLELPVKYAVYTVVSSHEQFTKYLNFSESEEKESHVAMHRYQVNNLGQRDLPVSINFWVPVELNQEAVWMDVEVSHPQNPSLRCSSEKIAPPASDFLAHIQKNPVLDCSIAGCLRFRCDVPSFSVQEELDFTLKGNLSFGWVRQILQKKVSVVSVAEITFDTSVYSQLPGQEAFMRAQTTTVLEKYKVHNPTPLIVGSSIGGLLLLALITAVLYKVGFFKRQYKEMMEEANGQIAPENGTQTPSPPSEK
UniProt P02679, residues 27-453: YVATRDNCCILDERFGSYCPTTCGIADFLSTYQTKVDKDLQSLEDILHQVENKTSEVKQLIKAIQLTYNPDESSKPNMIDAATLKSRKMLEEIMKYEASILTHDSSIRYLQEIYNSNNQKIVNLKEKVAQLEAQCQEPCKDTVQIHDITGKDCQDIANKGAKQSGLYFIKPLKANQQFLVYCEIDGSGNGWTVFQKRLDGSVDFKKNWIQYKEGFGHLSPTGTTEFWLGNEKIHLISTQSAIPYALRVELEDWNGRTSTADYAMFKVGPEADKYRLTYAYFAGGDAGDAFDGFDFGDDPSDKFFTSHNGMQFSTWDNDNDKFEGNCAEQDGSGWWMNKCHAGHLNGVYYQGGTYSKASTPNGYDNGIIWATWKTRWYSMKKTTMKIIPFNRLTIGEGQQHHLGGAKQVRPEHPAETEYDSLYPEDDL
UniProt P05362, residues 28-532: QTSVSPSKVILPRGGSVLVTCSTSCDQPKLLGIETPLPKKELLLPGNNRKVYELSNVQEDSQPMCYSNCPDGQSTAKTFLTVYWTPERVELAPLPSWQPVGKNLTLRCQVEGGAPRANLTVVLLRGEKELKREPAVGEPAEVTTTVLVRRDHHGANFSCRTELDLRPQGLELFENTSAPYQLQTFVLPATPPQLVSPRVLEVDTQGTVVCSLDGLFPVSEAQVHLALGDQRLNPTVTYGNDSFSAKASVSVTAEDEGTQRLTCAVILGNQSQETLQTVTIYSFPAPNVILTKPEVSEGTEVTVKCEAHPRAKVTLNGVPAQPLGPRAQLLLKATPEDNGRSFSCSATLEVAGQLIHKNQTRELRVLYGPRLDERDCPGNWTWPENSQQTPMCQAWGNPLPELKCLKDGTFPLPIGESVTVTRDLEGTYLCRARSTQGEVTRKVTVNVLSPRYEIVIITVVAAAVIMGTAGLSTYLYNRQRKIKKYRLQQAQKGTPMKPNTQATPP
UniProt P02671, residues 36-866: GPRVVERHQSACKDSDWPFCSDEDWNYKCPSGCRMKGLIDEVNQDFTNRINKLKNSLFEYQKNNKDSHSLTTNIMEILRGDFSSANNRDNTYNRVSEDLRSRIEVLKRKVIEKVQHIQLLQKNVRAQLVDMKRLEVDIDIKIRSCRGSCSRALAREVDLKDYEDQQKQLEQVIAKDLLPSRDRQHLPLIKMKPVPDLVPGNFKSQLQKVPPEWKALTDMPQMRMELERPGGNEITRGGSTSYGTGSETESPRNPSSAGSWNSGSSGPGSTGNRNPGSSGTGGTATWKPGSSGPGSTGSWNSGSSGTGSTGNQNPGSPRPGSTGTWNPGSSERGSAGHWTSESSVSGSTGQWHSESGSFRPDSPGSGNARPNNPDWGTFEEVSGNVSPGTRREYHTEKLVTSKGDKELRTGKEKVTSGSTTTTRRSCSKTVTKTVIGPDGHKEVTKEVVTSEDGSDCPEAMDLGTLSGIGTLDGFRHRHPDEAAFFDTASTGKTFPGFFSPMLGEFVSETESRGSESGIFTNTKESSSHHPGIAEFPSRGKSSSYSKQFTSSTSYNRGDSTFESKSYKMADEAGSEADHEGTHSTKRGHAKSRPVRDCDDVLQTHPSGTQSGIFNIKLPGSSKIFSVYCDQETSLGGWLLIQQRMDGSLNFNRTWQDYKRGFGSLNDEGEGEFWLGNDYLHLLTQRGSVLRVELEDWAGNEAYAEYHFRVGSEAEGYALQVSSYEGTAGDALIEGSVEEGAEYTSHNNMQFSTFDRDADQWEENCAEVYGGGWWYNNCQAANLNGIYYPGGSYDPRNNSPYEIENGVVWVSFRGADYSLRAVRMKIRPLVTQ
UniProt P05107, residues 23-769: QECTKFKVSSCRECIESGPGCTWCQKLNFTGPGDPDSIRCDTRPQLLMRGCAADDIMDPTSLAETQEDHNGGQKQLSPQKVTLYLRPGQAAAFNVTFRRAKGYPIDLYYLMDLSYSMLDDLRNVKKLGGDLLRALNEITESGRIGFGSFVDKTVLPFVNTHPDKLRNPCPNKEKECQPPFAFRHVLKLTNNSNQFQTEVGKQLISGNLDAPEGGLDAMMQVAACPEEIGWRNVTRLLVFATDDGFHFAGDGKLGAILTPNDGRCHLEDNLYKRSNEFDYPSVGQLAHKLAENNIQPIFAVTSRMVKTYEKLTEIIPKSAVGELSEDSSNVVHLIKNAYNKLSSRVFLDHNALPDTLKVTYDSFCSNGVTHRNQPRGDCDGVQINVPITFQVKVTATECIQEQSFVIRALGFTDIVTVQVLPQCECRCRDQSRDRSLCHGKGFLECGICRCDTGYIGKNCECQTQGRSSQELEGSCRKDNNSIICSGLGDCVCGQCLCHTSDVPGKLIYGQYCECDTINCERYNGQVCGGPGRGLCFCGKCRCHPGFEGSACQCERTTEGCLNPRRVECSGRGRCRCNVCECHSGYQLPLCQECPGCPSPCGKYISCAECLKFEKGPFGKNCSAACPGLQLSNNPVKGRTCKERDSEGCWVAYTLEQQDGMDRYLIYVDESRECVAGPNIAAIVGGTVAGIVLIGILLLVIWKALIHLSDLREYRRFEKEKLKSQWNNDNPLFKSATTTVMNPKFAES
UniProt P35579: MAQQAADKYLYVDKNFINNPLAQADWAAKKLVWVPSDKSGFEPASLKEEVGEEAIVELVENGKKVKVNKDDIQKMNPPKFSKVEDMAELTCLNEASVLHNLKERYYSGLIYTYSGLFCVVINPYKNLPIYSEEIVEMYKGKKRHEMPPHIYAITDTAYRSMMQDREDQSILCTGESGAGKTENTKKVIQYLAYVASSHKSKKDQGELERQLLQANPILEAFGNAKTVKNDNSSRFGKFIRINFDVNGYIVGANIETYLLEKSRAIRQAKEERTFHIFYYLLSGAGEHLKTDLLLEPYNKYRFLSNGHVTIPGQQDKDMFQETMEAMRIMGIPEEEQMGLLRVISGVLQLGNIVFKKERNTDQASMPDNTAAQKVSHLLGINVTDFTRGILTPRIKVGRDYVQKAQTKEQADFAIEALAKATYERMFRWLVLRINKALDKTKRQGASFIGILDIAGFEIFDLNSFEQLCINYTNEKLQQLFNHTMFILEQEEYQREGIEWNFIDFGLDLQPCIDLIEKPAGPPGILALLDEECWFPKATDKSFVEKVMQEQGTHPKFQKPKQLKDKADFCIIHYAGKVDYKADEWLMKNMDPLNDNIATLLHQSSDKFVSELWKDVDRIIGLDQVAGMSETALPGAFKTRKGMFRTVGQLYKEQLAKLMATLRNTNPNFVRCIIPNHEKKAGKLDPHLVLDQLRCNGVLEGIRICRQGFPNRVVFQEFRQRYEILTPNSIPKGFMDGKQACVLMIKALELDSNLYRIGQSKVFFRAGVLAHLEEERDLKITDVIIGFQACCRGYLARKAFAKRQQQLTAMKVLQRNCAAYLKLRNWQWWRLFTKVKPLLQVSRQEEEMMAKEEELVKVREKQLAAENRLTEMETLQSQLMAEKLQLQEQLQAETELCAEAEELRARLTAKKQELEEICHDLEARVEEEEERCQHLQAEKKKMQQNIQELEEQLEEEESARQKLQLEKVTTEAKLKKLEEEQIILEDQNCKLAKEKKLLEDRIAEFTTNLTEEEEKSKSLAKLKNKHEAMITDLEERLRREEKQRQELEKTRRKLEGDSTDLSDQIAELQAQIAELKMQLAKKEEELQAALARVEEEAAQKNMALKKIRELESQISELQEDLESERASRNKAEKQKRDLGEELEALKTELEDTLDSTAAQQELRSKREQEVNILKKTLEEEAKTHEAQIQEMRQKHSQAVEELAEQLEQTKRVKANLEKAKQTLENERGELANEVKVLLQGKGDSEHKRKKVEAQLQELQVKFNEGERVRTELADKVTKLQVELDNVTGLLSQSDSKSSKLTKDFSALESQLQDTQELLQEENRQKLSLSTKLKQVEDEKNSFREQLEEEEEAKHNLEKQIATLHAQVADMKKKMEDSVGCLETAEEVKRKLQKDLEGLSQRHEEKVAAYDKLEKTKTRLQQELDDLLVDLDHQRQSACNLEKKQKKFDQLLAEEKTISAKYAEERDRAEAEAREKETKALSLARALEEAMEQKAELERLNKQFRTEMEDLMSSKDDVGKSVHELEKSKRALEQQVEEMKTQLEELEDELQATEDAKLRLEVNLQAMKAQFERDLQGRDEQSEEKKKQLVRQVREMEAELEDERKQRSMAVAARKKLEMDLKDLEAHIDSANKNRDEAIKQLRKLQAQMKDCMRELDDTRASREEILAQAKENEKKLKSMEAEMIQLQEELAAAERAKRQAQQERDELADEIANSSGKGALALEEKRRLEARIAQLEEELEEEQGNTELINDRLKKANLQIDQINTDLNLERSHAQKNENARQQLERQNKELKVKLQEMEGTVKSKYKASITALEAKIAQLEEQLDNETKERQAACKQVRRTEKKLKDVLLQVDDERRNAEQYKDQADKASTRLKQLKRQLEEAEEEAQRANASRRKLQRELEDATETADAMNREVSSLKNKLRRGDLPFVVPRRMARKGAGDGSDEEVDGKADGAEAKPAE

Test [2] concerns the target T2, HA-tagged ECM1b (extracellular matrix protein-1, non-secretory isoform b) (human) (UniProt Q16610).
T2 sequence: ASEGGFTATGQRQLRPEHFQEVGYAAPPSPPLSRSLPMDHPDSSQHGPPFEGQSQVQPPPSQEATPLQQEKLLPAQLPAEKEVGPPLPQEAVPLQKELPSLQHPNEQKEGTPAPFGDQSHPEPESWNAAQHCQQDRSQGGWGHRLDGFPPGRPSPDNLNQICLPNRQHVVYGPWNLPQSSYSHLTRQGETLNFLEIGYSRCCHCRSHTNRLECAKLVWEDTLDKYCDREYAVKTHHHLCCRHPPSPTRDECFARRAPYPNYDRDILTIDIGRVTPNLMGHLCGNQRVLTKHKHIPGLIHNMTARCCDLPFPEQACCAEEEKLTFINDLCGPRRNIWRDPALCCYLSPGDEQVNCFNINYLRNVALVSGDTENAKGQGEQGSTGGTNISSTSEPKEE
Described as above.

For test [3], the target named is T1, HA-tagged ECM1a (extracellular matrix protein-1, secretory isoform a), wild type (human). Briefly: co-IP; cell surface biotinylation (EZ-Link Sulfo-NHS-SS-Biotin, NeutrAvidin Agarose), isolated cell surface components precipitated with an HA antibody, WB for integrin αX or β2.
Test [4] shares this target. Briefly: co-IP; 0.5-1.0 mg whole-cell lysate of A8i cells expressing HA-ECM1a, HA-ECM1b or HA-ECM1a-MT in RIPA lysis buffer, 2 ug antibody or normal IgG, detection by WB.
The target of test [5] is T2, HA-tagged ECM1b (extracellular matrix protein-1, non-secretory isoform b) (human). The description is as above.
Test [6] deals with T1, HA-tagged ECM1a (extracellular matrix protein-1, secretory isoform a), wild type (human). Briefly: co-IP; cell culture supernatants (conditioned medium) collected from HeyA8 cells overexpressing HA-ECM1a or HA-ECM1b.
The target of test [7] is integrin αX (human (endogenous in HeyA8)) (UniProt P20702). Briefly: co-IP; lysates of A8, A8i and A8i-A cells precipitated with antibodies against integrin αX or β2, WB for the ligands.
For test [8], the target named is fibrinogen γ chain (human (endogenous in HeyA8)) (UniProt P02679). Briefly: co-IP; reverse co-IP: lysates of A8, A8i and A8i-A cells precipitated with antibodies against the ligands, WB for integrin αX or β2.
Test [9] has as its target T3, CD90 (Thy-1) (human (endogenous in HeyA8)) (UniProt P04216).
T3 sequence: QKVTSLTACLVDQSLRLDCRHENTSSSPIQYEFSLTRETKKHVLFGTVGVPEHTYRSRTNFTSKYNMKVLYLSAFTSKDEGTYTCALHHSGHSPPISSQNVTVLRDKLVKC
The description is as above.

In test [10] the target is ICAM-1 (human (endogenous in HeyA8)) (UniProt P05362). The description is as above.
The target in test [11] is fibrinogen α chain (human (endogenous in HeyA8)) (UniProt P02671). The test is described as above.
Test [12] addresses integrin β2 (human (endogenous in HeyA8)) (UniProt P05107). Briefly: co-IP; lysates of A8, A8i and A8i-A cells precipitated with antibodies against integrin αX or β2, WB for the ligands.

The text below walks through data of PMC8270969.

No constants are given. Whether binding was seen depends on the method and setting. Binding seen in cells or lysates may run through a third protein. Some results given as binding are weak or reduced against the parent protein; the word gives no strength. For some of these results: Sequences can lack the tags named with a protein.

Take “integrin β2 (from UniProt P05107 23-769) (receptor)”: the binding result was “binds” in test [1]; “no binding” in test [2]; “binds” in test [3]; “binds” in test [4]; “no binding” in test [5]; “binds” in test [6].
Turning to “nonphosphorylated myosin IIa (from UniProt P35579 1-1960)”, the binding result in test [4] is “no binding”.
With “fibrinogen γ chain (from UniProt P02679 27-453) (ligand)”, the binding result in test [7] was “binds”.
Consider “fibrinogen α chain (from UniProt P02671 36-866) (ligand)”, for which the binding result in [7] is given as “binds”.
“integrin αX (from UniProt P20702 20-1163) (receptor)”: the binding entry in test [1] is recorded as “binds”; in test [2] it was “no binding”; in test [3] it was “binds”; in [4], “binds”; in test [5], “no binding”; in test [6], “binds”. For the same molecule, the binding entry in [8], in [9], in test [10] and in test [11] was “binds” throughout.
As to “ICAM-1 (from UniProt P05362 28-532) (ligand)”, the binding result in [7] is “binds”.

B1: CD90 (Thy-1) (ligand, UniProt P04216 20-130)
chain: T3 sequence
In the case of B1, the binding result is recorded as “no binding” in test [12] and “binds” in test [7].
